{"source": "paper PMC5681660", "about": "“Reduced hepatitis B and D viral entry using clinically applied drugs as novel inhibitors of the bile acid transporter NTCP” (Scientific Reports, 2017)", "key": {"human NTCP [1]": {"target": "T1, human NTCP (Homo sapiens, UniProt Q14973)", "T1 sequence (Q14973 1-349)": "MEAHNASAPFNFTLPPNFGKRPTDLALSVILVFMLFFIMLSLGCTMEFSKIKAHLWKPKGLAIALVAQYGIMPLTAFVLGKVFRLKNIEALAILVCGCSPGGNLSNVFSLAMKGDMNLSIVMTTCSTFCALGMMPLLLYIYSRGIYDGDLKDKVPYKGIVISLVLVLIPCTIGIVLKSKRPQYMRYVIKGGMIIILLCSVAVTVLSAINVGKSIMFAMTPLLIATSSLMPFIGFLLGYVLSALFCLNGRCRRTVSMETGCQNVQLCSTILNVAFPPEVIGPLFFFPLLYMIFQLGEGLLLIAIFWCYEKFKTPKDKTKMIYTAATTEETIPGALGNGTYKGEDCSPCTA", "assay": "Screening taurocholate uptake assay (96-well, [14C]taurocholate, 10 µM drug)", "conditions": "for remaining activity at 10 µM: 10 min, read-out: %NTCP activity"}, "human NTCP [2]": {"target": "T1, human NTCP", "assay": "Screening fluorescent competitive Myrcludex B-FITC binding assay (96-well, 10 µM drug)"}, "[3]": {"conditions": "Prestwick library screen, 10 µM drug, [14C]taurocholate uptake"}, "[4]": {"conditions": "Prestwick library screen, 10 µM drug, Myrcludex B-FITC binding"}, "[5]": {"conditions": "screen, 10 µM drug, Myrcludex B-FITC binding"}}, "note": "Counter-ions that a name gives are not always drawn. Like-named read-outs stand apart in the source and are kept apart here."}
{"smiles": "CCN(CC)CCNC(=O)COc1ccc(OC)cc1.Cl", "note": "[Mefexamide hydrochloride]", "values": [{"measurement": "%NTCP activity", "setting": "human NTCP [1]; [3]", "result": 118.598, "unit": "%"}, {"measurement": "%NTCP binding", "setting": "human NTCP [2]; [4]", "result": 65.5109, "unit": "%"}]}
{"smiles": "C[C@]12CC[C@H]3[C@@H](CCC4=CC(=O)CC[C@@H]43)[C@@H]1CC[C@@H]2O", "note": "[Nandrolone]", "values": [{"measurement": "remaining activity at 10 µM", "setting": "human NTCP [1]", "result": 72.9, "unit": "%"}, {"measurement": "remaining activity at 10 µM", "setting": "human NTCP [2]; 0.5 h, read-out: %NTCP binding", "result": 113, "unit": "%"}]}
{"smiles": "Cc1nnc(NS(=O)(=O)c2ccc(N)cc2)s1", "note": "[Sulfamethizole]", "values": [{"measurement": "remaining activity at 10 µM", "setting": "human NTCP [1]", "result": 107, "unit": "%"}, {"measurement": "remaining activity at 10 µM", "setting": "human NTCP [2]; 0.5 h, read-out: %NTCP binding", "result": 130, "unit": "%"}]}
{"smiles": "C#C[C@]1(O)CC[C@H]2[C@@H]3CCC4=CCCC[C@@H]4[C@H]3CC[C@@]21C", "note": "[Lynestrenol]", "values": [{"measurement": "remaining activity at 10 µM", "setting": "human NTCP [1]", "result": 53.7, "unit": "%"}, {"measurement": "remaining activity at 10 µM", "setting": "human NTCP [2]; 0.5 h, read-out: %NTCP binding", "result": 88.9, "unit": "%"}]}
{"smiles": "COc1c(N2CCNC(C)C2)c(F)cc2c(=O)c(C(=O)O)cn(C3CC3)c12", "note": "(stereo not drawn) [Gatifloxacin]", "values": [{"measurement": "remaining activity at 10 µM", "setting": "human NTCP [1]", "result": 85.5, "unit": "%"}, {"measurement": "remaining activity at 10 µM", "setting": "human NTCP [2]; 0.5 h, read-out: %NTCP binding", "result": 119, "unit": "%"}]}
{"smiles": "COc1ccc(C[C@@H]2c3cc(OC)c(OC)cc3CC[N@+]2(C)CCC(=O)OCCCCCOC(=O)CC[N@@+]2(C)CCc3cc(OC)c(OC)cc3[C@H]2Cc2ccc(OC)c(OC)c2)cc1OC", "note": "[Cisatracurium besylate]", "values": [{"measurement": "remaining activity at 10 µM", "setting": "human NTCP [1]", "result": 107, "unit": "%"}, {"measurement": "remaining activity at 10 µM", "setting": "human NTCP [2]; 0.5 h, read-out: %NTCP binding", "result": 89, "unit": "%"}]}
{"smiles": "COC(=O)Nc1nc2ccc(C(=O)c3ccccc3)cc2[nH]1", "note": "[Mebendazole]", "values": [{"measurement": "remaining activity at 10 µM", "setting": "human NTCP [1]", "result": 105, "unit": "%"}, {"measurement": "remaining activity at 10 µM", "setting": "human NTCP [2]; 0.5 h, read-out: %NTCP binding", "result": 62.7, "unit": "%"}]}
{"smiles": "Cl.Nc1c(Br)cc(Br)cc1CNC1CCC(O)CC1", "note": "(stereo not drawn) [Ambroxol hydrochloride]", "values": [{"measurement": "%NTCP activity", "setting": "human NTCP [1]; [3]", "result": 49.7759, "unit": "%"}, {"measurement": "%NTCP binding", "setting": "human NTCP [2]; [4]", "result": 48.8388, "unit": "%"}]}
{"smiles": "CCC1(c2ccc(N)cc2)CCC(=O)NC1=O", "note": "(stereo not drawn) [Glutethimide, para-amino]", "values": [{"measurement": "%NTCP activity", "setting": "human NTCP [1]", "result": 33.9561, "unit": "%"}, {"measurement": "%NTCP binding", "setting": "human NTCP [2]; Prestwick library screen, Myrcludex B-FITC binding, 10 µM drug", "result": 79.4709, "unit": "%"}]}
{"smiles": "CCCNC(C)C(=O)Nc1c(C)csc1C(=O)OC", "note": "(stereo not drawn) [Articaine hydrochloride]", "values": [{"measurement": "remaining activity at 10 µM", "setting": "human NTCP [1]", "result": 80.1, "unit": "%"}, {"measurement": "remaining activity at 10 µM", "setting": "human NTCP [2]; 0.5 h, read-out: %NTCP binding", "result": 83.8, "unit": "%"}]}
{"smiles": "CCCCOc1cc(C(=O)NCCN(CC)CC)c2ccccc2n1", "note": "[Dibucaine]", "values": [{"measurement": "remaining activity at 10 µM", "setting": "human NTCP [1]", "result": 113, "unit": "%"}, {"measurement": "remaining activity at 10 µM", "setting": "human NTCP [2]; 0.5 h, read-out: %NTCP binding", "result": 116, "unit": "%"}]}
{"smiles": "CC(Cc1ccccc1)NCCC(c1ccccc1)c1ccccc1", "note": "(stereo not drawn) [Prenylamine lactate]", "values": [{"measurement": "remaining activity at 10 µM", "setting": "human NTCP [1]", "result": 91.1, "unit": "%"}, {"measurement": "remaining activity at 10 µM", "setting": "human NTCP [2]; 0.5 h, read-out: %NTCP binding, Prestwick library screen, 10 µM drug, Myrcludex B-FITC binding", "result": 31.1, "unit": "%"}]}
{"smiles": "CC(=O)CCCCn1c(=O)c2c(ncn2C)n(C)c1=O", "note": "[Pentoxifylline]", "values": [{"measurement": "remaining activity at 10 µM", "setting": "human NTCP [1]", "result": 91.8, "unit": "%"}, {"measurement": "remaining activity at 10 µM", "setting": "human NTCP [2]; 0.5 h, read-out: %NTCP binding", "result": 50.2, "unit": "%"}]}
{"smiles": "Cc1cc(-c2ccccc2)nnc1NCCN1CCOCC1", "note": "[Minaprine dihydrochloride]", "values": [{"measurement": "remaining activity at 10 µM", "setting": "human NTCP [1]", "result": 95.5, "unit": "%"}, {"measurement": "remaining activity at 10 µM", "setting": "human NTCP [2]; 0.5 h, read-out: %NTCP binding", "result": 114, "unit": "%"}]}
{"smiles": "CC(C)C(=O)c1c(C(C)C)nn2ccccc12", "note": "[Ibudilast]", "values": [{"measurement": "remaining activity at 10 µM", "setting": "human NTCP [1]", "result": 86.1, "unit": "%"}, {"measurement": "remaining activity at 10 µM", "setting": "human NTCP [2]; 0.5 h, read-out: %NTCP binding", "result": 97.6, "unit": "%"}]}
{"smiles": "CC(=O)O[C@H]1CC[C@@]2(C)C(=CC[C@@H]3[C@@H]2CC[C@]2(C)C(=O)CC[C@@H]32)C1", "note": "[Dehydroisoandosterone 3-acetate]", "values": [{"measurement": "%NTCP activity", "setting": "human NTCP [1]", "result": 52.8978, "unit": "%"}, {"measurement": "%NTCP binding", "setting": "human NTCP [2]; [5]", "result": 87.5215, "unit": "%"}]}
{"smiles": "Nc1nc(=O)c2nc(CNc3ccc(C(=O)N[C@@H](CCC(=O)O)C(=O)O)cc3)cnc2[nH]1", "note": "[Folic acid]", "values": [{"measurement": "remaining activity at 10 µM", "setting": "human NTCP [1]", "result": 115, "unit": "%"}, {"measurement": "remaining activity at 10 µM", "setting": "human NTCP [2]; 0.5 h, read-out: %NTCP binding", "result": 86.3, "unit": "%"}]}
{"smiles": "N=C(N)NCC1COC2(CCCCC2)O1.N=C(N)NCC1COC2(CCCCC2)O1.O=S(=O)(O)O", "note": "(stereo not drawn) [Guanadrel sulfate]", "values": [{"measurement": "%NTCP activity", "setting": "human NTCP [1]", "result": 89.1345, "unit": "%"}, {"measurement": "%NTCP binding", "setting": "human NTCP [2]; [5]", "result": 87.7743, "unit": "%"}]}
{"smiles": "NC1CCN(c2c(F)cc3c(=O)c(C(=O)O)cn(C4CC4)c3c2Cl)C1", "note": "(stereo not drawn) [Clinafloxacin]", "values": [{"measurement": "remaining activity at 10 µM", "setting": "human NTCP [1]", "result": 102, "unit": "%"}, {"measurement": "remaining activity at 10 µM", "setting": "human NTCP [2]; 0.5 h, read-out: %NTCP binding", "result": 85, "unit": "%"}]}
{"smiles": "C[C@@H](O)[C@H]1C(=O)N2C(C(=O)O)=C(S[C@@H]3CN[C@H](C(=O)N(C)C)C3)[C@H](C)[C@H]12", "note": "[Meropenem]", "values": [{"measurement": "remaining activity at 10 µM", "setting": "human NTCP [1]", "result": 109, "unit": "%"}, {"measurement": "remaining activity at 10 µM", "setting": "human NTCP [2]; 0.5 h, read-out: %NTCP binding", "result": 95.6, "unit": "%"}]}
{"smiles": "CN1CCC(=C2c3ccccc3C=Cc3ccccc32)CC1", "note": "[Cyproheptadine hydrochloride]", "values": [{"measurement": "remaining activity at 10 µM", "setting": "human NTCP [1]", "result": 59.2, "unit": "%"}, {"measurement": "remaining activity at 10 µM", "setting": "human NTCP [2]; 0.5 h, read-out: %NTCP binding", "result": 92.1, "unit": "%"}]}
{"smiles": "O=P(O)(O)C(O)(Cn1ccnc1)P(=O)(O)O", "note": "[Zoledronic acid hydrate]", "values": [{"measurement": "remaining activity at 10 µM", "setting": "human NTCP [1]", "result": 93.7, "unit": "%"}, {"measurement": "remaining activity at 10 µM", "setting": "human NTCP [2]; 0.5 h, read-out: %NTCP binding", "result": 34.1, "unit": "%"}]}
{"smiles": "Cl.O=C(OCC(O)CO)c1ccccc1Nc1ccnc2cc(Cl)ccc12", "note": "(stereo not drawn) [Glafenine hydrochloride]", "values": [{"measurement": "%NTCP activity", "setting": "human NTCP [1]; [3]", "result": 94.297, "unit": "%"}, {"measurement": "%NTCP binding", "setting": "human NTCP [2]; [4]", "result": 91.2482, "unit": "%"}]}
{"smiles": "Nc1cc(-c2ccncc2)c[nH]c1=O", "note": "[Amrinone]", "values": [{"measurement": "remaining activity at 10 µM", "setting": "human NTCP [1]", "result": 70, "unit": "%"}, {"measurement": "remaining activity at 10 µM", "setting": "human NTCP [2]; 0.5 h, read-out: %NTCP binding", "result": 69.9, "unit": "%"}]}
